Test results: the supplement of paper PMC4967469
Lines with a small IC50 respond at low doses; a fit beyond the top or the lowest dose is shown as a bound at that dose. AUC, from the same fit, is the share of area under the viability curve across the 256-fold dose range: 1 means no effect, lower means more sensitive. For part of these data: Any top dose called inferred is not printed in the source and was worked back from the curve model.

Experiments:
Experiment in all cases: Viability of human cancer cell lines after 72 h of drug (GDSC screen)
[1] = compound: CCc1cncnc1N1CCN(Cc2nc3ccc(C(F)(F)F)cc3[nH]2)CC1 [PF-4708671]; conditions: top dose 10 µM; top dose inferred
Protocol: (§1)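 Human cancer cell lines in 384-well plates, medium with 10% serum, drug for 72 h over a 256-fold dose range (nine 2-fold or five 4-fold steps up to the top dose). Adherent lines were fixed and stained with the nucleic acid dye Syto60, suspension lines read with resazurin; signal relative to control wells, capped at 0 and 100%. One two-parameter sigmoid per drug and line, fitted in a mixed model over all curves with the slope shared within a line.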

[2] = compound: CCNC(=O)C[C@@H]1N=C(c2ccc(Cl)cc2)c2cc(OC)ccc2-n2c(C)nnc21 [I-BET-762]; conditions: top dose 20 µM; top dose inferred
Protocol: as §1

[3] = compound: CCN1CCN(Cc2ccc(NC(=O)c3ccc(C)c(/C=C/c4cnc5[nH]ccc5c4OC)c3)cc2C(F)(F)F)CC1 [HG-6-64-1]; conditions: top dose 5.12 µM; top dose inferred
Protocol: as §1

[4] = compound: CC(=O)Nc1cccc(-n2c(=O)n(C3CC3)c(=O)c3c(Nc4ccc(I)cc4F)n(C)c(=O)c(C)c32)c1 [Trametinib]; conditions: top dose 1 µM
Protocol: as §1

[5] = compound: O=C(NC(COc1ccc2[nH]c(=O)[nH]c2c1)c1ccccc1)c1cccn(Cc2ccc(F)c(F)c2)c1=O [KIN001-244]; conditions: top dose 20 µM; top dose inferred
Protocol: as §1

[6] = compound: COc1cc2nccc(Oc3ccc(NC(=O)Nc4cc(C)on4)c(Cl)c3)c2cc1OC [AV-951]; conditions: top dose 0.128 µM; top dose inferred
Protocol: as §1

H2591 (mesothelioma, adherent)
AUC [1]: 0.947
IC50 [1]: > 10 µM
AUC [2]: 0.925
IC50 [2]: > 20 µM
AUC [3]: 0.694
IC50 [3]: 1.33 µM
AUC [4]: 0.885
IC50 [4]: > 1 µM
AUC [5]: 0.857
IC50 [5]: > 20 µM
AUC [6]: 0.976
IC50 [6]: > 0.128 µM

H2595 (mesothelioma, adherent)
AUC [1]: 0.973
IC50 [1]: > 10 µM
AUC [2]: 0.89
IC50 [2]: > 20 µM
AUC [3]: 0.866
IC50 [3]: > 5.12 µM
AUC [4]: 0.902
IC50 [4]: > 1 µM
AUC [5]: 0.958
IC50 [5]: > 20 µM
AUC [6]: 0.974
IC50 [6]: > 0.128 µM

H2722 (mesothelioma, adherent)
AUC [1]: 0.964
IC50 [1]: > 10 µM
AUC [2]: 0.934
IC50 [2]: > 20 µM
AUC [3]: 0.884
IC50 [3]: > 5.12 µM
AUC [4]: 0.703
IC50 [4]: 0.263 µM
AUC [5]: 0.847
IC50 [5]: 19.1 µM
AUC [6]: 0.984
IC50 [6]: > 0.128 µM

H2731 (mesothelioma, adherent)
AUC [1]: 0.948
IC50 [1]: > 10 µM
AUC [2]: 0.532
IC50 [2]: 1.55 µM
AUC [3]: 0.705
IC50 [3]: 1.33 µM
AUC [4]: 0.832
IC50 [4]: 0.771 µM
AUC [5]: 0.852
IC50 [5]: 19.1 µM
AUC [6]: 0.974
IC50 [6]: > 0.128 µM

H2795 (mesothelioma, adherent)
AUC [1]: 0.944
IC50 [1]: > 10 µM
AUC [2]: 0.987
IC50 [2]: > 20 µM
AUC [3]: 0.572
IC50 [3]: 0.501 µM
AUC [4]: 0.362
IC50 [4]: 0.0261 µM
AUC [5]: 0.824
IC50 [5]: 11.6 µM
AUC [6]: 0.985
IC50 [6]: > 0.128 µM

H2803 (mesothelioma, adherent)
AUC [1]: 0.896
IC50 [1]: > 10 µM
AUC [2]: 0.968
IC50 [2]: > 20 µM
AUC [3]: 0.636
IC50 [3]: 0.812 µM
AUC [4]: 0.796
IC50 [4]: 0.559 µM
AUC [5]: 0.978
IC50 [5]: > 20 µM
AUC [6]: 0.981
IC50 [6]: > 0.128 µM

H2804 (mesothelioma, adherent)
AUC [1]: 0.943
IC50 [1]: > 10 µM
AUC [2]: 0.904
IC50 [2]: > 20 µM
AUC [3]: 0.8
IC50 [3]: 2.77 µM
AUC [4]: 0.984
IC50 [4]: > 1 µM
AUC [5]: 0.931
IC50 [5]: > 20 µM
AUC [6]: 0.985
IC50 [6]: > 0.128 µM

H2818 (mesothelioma, adherent)
AUC [1]: 0.958
IC50 [1]: > 10 µM
AUC [2]: 0.965
IC50 [2]: > 20 µM
AUC [3]: 0.748
IC50 [3]: 1.68 µM
AUC [4]: 0.877
IC50 [4]: > 1 µM
AUC [5]: 0.989
IC50 [5]: > 20 µM
AUC [6]: 0.98
IC50 [6]: > 0.128 µM

H2869 (mesothelioma, adherent)
AUC [1]: 0.976
IC50 [1]: > 10 µM
AUC [2]: 0.964
IC50 [2]: > 20 µM
AUC [3]: 0.754
IC50 [3]: 2.1 µM
AUC [4]: 0.851
IC50 [4]: > 1 µM
AUC [5]: 0.91
IC50 [5]: > 20 µM
AUC [6]: 0.976
IC50 [6]: > 0.128 µM

H3118 (head and neck, adherent)
AUC [1]: 0.953
IC50 [1]: > 10 µM
AUC [2]: 0.898
IC50 [2]: > 20 µM
AUC [3]: 0.688
IC50 [3]: 1.14 µM
AUC [4]: 0.104
IC50 [4]: < 0.00391 µM
AUC [5]: 0.885
IC50 [5]: > 20 µM
AUC [6]: 0.981
IC50 [6]: > 0.128 µM

H3255 (lung adenocarcinoma, adherent)
AUC [1]: 0.941
IC50 [1]: > 10 µM
AUC [2]: 0.98
IC50 [2]: > 20 µM
AUC [3]: 0.82
IC50 [3]: 3.7 µM
AUC [4]: 0.748
IC50 [4]: 0.378 µM
AUC [5]: 0.966
IC50 [5]: > 20 µM
AUC [6]: 0.983
IC50 [6]: > 0.128 µM

HARA (lung squamous cell carcinoma, adherent)
AUC [1]: 0.911
IC50 [1]: > 10 µM
AUC [2]: 0.921
IC50 [2]: > 20 µM
AUC [3]: 0.79
IC50 [3]: 2.7 µM
AUC [4]: 0.645
IC50 [4]: 0.169 µM
AUC [5]: 0.872
IC50 [5]: > 20 µM
AUC [6]: 0.968
IC50 [6]: > 0.128 µM

HCC38 (breast, adherent)
AUC [1]: 0.938
IC50 [1]: > 10 µM
AUC [2]: 0.905
IC50 [2]: > 20 µM
AUC [3]: 0.852
IC50 [3]: 4.49 µM
AUC [4]: 0.941
IC50 [4]: > 1 µM
AUC [5]: 0.893
IC50 [5]: > 20 µM
AUC [6]: 0.977
IC50 [6]: > 0.128 µM

HCC70 (breast, adherent)
AUC [1]: 0.972
IC50 [1]: > 10 µM
AUC [2]: 0.827
IC50 [2]: 12 µM
AUC [3]: 0.92
IC50 [3]: > 5.12 µM
AUC [4]: 0.826
IC50 [4]: 0.593 µM
AUC [5]: 0.828
IC50 [5]: 12.1 µM
AUC [6]: 0.986
IC50 [6]: > 0.128 µM

HCC1395 (breast, adherent)
AUC [1]: 0.977
IC50 [1]: > 10 µM
AUC [2]: 0.972
IC50 [2]: > 20 µM
AUC [3]: 0.702
IC50 [3]: 1.35 µM
AUC [4]: 0.838
IC50 [4]: 0.885 µM
AUC [5]: 0.883
IC50 [5]: > 20 µM
AUC [6]: 0.974
IC50 [6]: > 0.128 µM

HCC1419 (breast, adherent)
AUC [1]: 0.824
IC50 [1]: 9.67 µM
AUC [2]: 0.94
IC50 [2]: > 20 µM
AUC [3]: 0.942
IC50 [3]: > 5.12 µM
AUC [4]: 0.959
IC50 [4]: > 1 µM
AUC [5]: 0.931
IC50 [5]: > 20 µM
AUC [6]: 0.98
IC50 [6]: > 0.128 µM

HCC1428 (breast, adherent)
AUC [1]: 0.969
IC50 [1]: > 10 µM
AUC [2]: 0.908
IC50 [2]: > 20 µM
AUC [3]: 0.974
IC50 [3]: > 5.12 µM
AUC [4]: 0.98
IC50 [4]: > 1 µM
AUC [5]: 0.947
IC50 [5]: > 20 µM
AUC [6]: 0.986
IC50 [6]: > 0.128 µM

HCC1569 (breast, adherent)
AUC [1]: 0.83
IC50 [1]: 9.36 µM
AUC [2]: 0.887
IC50 [2]: > 20 µM
AUC [3]: 0.739
IC50 [3]: 1.99 µM
AUC [4]: 0.769
IC50 [4]: 0.507 µM
AUC [5]: 0.907
IC50 [5]: > 20 µM
AUC [6]: 0.975
IC50 [6]: > 0.128 µM

HCC1806 (breast, adherent)
AUC [1]: 0.989
IC50 [1]: > 10 µM
AUC [2]: 0.967
IC50 [2]: > 20 µM
AUC [3]: 0.755
IC50 [3]: 1.61 µM
AUC [4]: 0.923
IC50 [4]: > 1 µM
AUC [5]: 0.928
IC50 [5]: > 20 µM
AUC [6]: 0.982
IC50 [6]: > 0.128 µM

HCC1937 (breast, adherent)
AUC [1]: 0.972
IC50 [1]: > 10 µM
AUC [2]: 0.913
IC50 [2]: > 20 µM
AUC [3]: 0.955
IC50 [3]: > 5.12 µM
AUC [4]: 0.857
IC50 [4]: > 1 µM
AUC [5]: 0.906
IC50 [5]: > 20 µM
AUC [6]: 0.981
IC50 [6]: > 0.128 µM

HCC1954 (breast, adherent)
AUC [1]: 0.937
IC50 [1]: > 10 µM
AUC [2]: 0.984
IC50 [2]: > 20 µM
AUC [3]: 0.974
IC50 [3]: > 5.12 µM
AUC [4]: 0.642
IC50 [4]: 0.165 µM
AUC [5]: 0.983
IC50 [5]: > 20 µM
AUC [6]: 0.981
IC50 [6]: > 0.128 µM

HCC-15 (lung squamous cell carcinoma, adherent)
AUC [1]: 0.933
IC50 [1]: > 10 µM
AUC [2]: 0.975
IC50 [2]: > 20 µM
AUC [3]: 0.882
IC50 [3]: > 5.12 µM
AUC [4]: 0.096
IC50 [4]: < 0.00391 µM
AUC [5]: 0.942
IC50 [5]: > 20 µM
AUC [6]: 0.975
IC50 [6]: > 0.128 µM
